In the supplement of paper PMC12217912:
The list shows a part of the results. The full chains were built here from the parent and the listed change. Inactive controls read about 0.05.

B1: TEV protease; numbered along this chain (parent)
chain: MGESLFKGPRDYNPISSSICHLTNESDGHTTSLYGIGFGPFIITNKHLFRRNNGTLVVQSLHGVFKVKDTTTLQQHLVDGRDMIIIRMPKDFPPFPQKLKFREPQREERICLVTTNFQTKSMSSMVSDTSCTFPSGDGIFWKHWIQTKDGQCGSPLVSTRDGFIVGIHSASNFTNTNNYFTSVPKNFMELLTNQEAQQWVSGWRLNADSVLWGGHKVFMVKPEEPFQPVKEATQL

Variants of: B1
Test: raw area under fraction-flipped curve 0-4 h after induction (AUC4h, not background-subtracted), DNA-recorder readout of cleavage of the substrate (dimensionless); higher = more cleavage of the substrate by the protease variant
Conditions: temperature: 34 °C; time window: 0-4 h after rhamnose induction
Experimental: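 In vivo DNA recorder in E. coli TOP10(DE3) ΔrhaA at 34 °C. Each TEVp single-site mutant (parent TEVp 0) is paired with a single-site variant of the 7-mer TEVs (canonical ENLYFQ|S). The substrate sits between flexible linkers in a Bxb1-sfGFP-TEVs-SsrA fusion, so cleavage stabilises Bxb1 and speeds flipping of a recombination array, read by NGS. The value is the raw area under the fraction-flipped curve over 0-4 h after rhamnose induction (AUC4h), with ≥20 reads per time point. It is not background-subtracted; inactive controls average about 0.047.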
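Also: Bxb1 expression induced with 0.2% (w/v) L-rhamnose at OD600 near 0.5, cultures sampled hourly, flipped fraction per protease–substrate barcode pair counted by paired-end Illumina sequencing.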

Variant	area with substrate ENLYCQS	area with substrate ENLYDQS	area with substrate ENLYEQS	area with substrate ENLYGQS	area with substrate ENLYHQS	area with substrate ENLYIQS	area with substrate ENLYLQS	area with substrate ENLYMQS	area with substrate ENLYNQS	area with substrate ENLYPQS	area with substrate ENLYQQS	area with substrate ENLYRQS	area with substrate ENLYTQS	area with substrate ENLYKQS	area with substrate ENLYSQS	area with substrate ENLYVQS	area with substrate ENLYWQS	area with substrate ENLYYQS
MGESLFKGPRDYNPISSSICHLTNESDGHTTSLYGIGFGPFIITNKHLFRRNNGTLVVQSLHGVFKVKDTTTLQQHLVDGRDMIIIRMPKDFPPFPQKLKFREPQREERICLVTTNFQTKSMSSMVSDTSCTFPSGDGIFIKHWIQTKDGQCGSPLVSTRDGFIVGIHSASNFTNTNNYFTSVPKNFMELLTNQEAQQWVSGWRLNADSVLWGGHKVFMVKPEEPFQPVKEATQL [W141I]	0.0493	0.0661	0.0729	0.0575	0.0692	0.0595	0.0404	0.0613	0.0173	0.0601	0.0684	0.052	0.0518	–	–	–	–	–
MGESLFKGPRDYNPISSSICHLTNESDGHTTSLYGIGFGPFIITNKHLFRRNNGTLVVQSLHGVFKVKDTTTLQQHLVDGRDMIIIRMPKDFPPFPQKLKFREPQREERICLVTTNFQTKSMSSMVSDTSCTFPSGDGIFWKHWIQTKDGQCGSPLVSTRDGFIRGIHSASNFTNTNNYFTSVPKNFMELLTNQEAQQWVSGWRLNADSVLWGGHKVFMVKPEEPFQPVKEATQL [V165R]	0.0529	0.0533	0.0511	0.0457	0.0587	0.0517	0.0455	0.0474	0.05	–	–	0.056	0.0467	0.0684	0.0543	0.055	0.0451	0.0698
MGESLFKGPRDYNPISSSICHLTNESDGHTTSLYGIGFGPFIITNKHLFRRNNGTLVVQSLHGVFKVKDTTTLQQHLVDGRDMIIIRMPKDFPPFPQKLKFREPQREERICLVTTNFQTKSMSSMVSDTSCTFPSGDGIFWKHWIQTKDGQCGSPLVSTRDGFIVGIHSALNFTNTNNYFTSVPKNFMELLTNQEAQQWVSGWRLNADSVLWGGHKVFMVKPEEPFQPVKEATQL [S171L]	0.064	–	0.0632	0.063	0.0506	–	–	0.0445	0.0669	0.062	0.0631	0.0602	0.0571	0.0562	0.0582	0.055	0.0639	–
MGESLFKGPRDYNPISSSICHLTNEWDGHTTSLYGIGFGPFIITNKHLFRRNNGTLVVQSLHGVFKVKDTTTLQQHLVDGRDMIIIRMPKDFPPFPQKLKFREPQREERICLVTTNFQTKSMSSMVSDTSCTFPSGDGIFWKHWIQTKDGQCGSPLVSTRDGFIVGIHSASNFTNTNNYFTSVPKNFMELLTNQEAQQWVSGWRLNADSVLWGGHKVFMVKPEEPFQPVKEATQL [S26W]	0.0657	–	0.0649	0.0675	0.0558	0.0604	0.0648	0.0761	0.0619	–	0.0656	0.0578	–	0.0539	0.0573	–	0.0665	0.0605
MGESLFKGPRDYEPISSSICHLTNESDGHTTSLYGIGFGPFIITNKHLFRRNNGTLVVQSLHGVFKVKDTTTLQQHLVDGRDMIIIRMPKDFPPFPQKLKFREPQREERICLVTTNFQTKSMSSMVSDTSCTFPSGDGIFWKHWIQTKDGQCGSPLVSTRDGFIVGIHSASNFTNTNNYFTSVPKNFMELLTNQEAQQWVSGWRLNADSVLWGGHKVFMVKPEEPFQPVKEATQL [N13E]	0.0756	0.0682	0.0806	0.0405	0.0716	0.0963	0.103	0.0929	0.0671	0.0722	0.0476	0.0538	0.0894	0.0628	0.0555	–	0.0756	0.0758
MGESLFKGPRDYNPISSSICHLTNESDGHTTSLYGIGFGPFIITNKHLFRRNNGTLVVQSLHGVFKVKDTTTLQQHLVDGRDMIIIRMPKDFPPFPQKLKFREPQREERICLVTTNFQTKSMSSMVSDTSCTFPSGDGIFWKHWIQTKDGQCGSPHVSTRDGFIVGIHSASNFTNTNNYFTSVPKNFMELLTNQEAQQWVSGWRLNADSVLWGGHKVFMVKPEEPFQPVKEATQL [L156H]	0.0503	0.0606	0.0498	0.0598	0.0592	0.0586	0.0577	0.0635	0.0652	0.0594	0.0615	–	0.0557	0.0464	0.0651	0.0616	0.0573	0.0525
MGESLFKGPRDYNPISSSICHLTNESDGHTTSLYGYGFGPFIITNKHLFRRNNGTLVVQSLHGVFKVKDTTTLQQHLVDGRDMIIIRMPKDFPPFPQKLKFREPQREERICLVTTNFQTKSMSSMVSDTSCTFPSGDGIFWKHWIQTKDGQCGSPLVSTRDGFIVGIHSASNFTNTNNYFTSVPKNFMELLTNQEAQQWVSGWRLNADSVLWGGHKVFMVKPEEPFQPVKEATQL [I36Y]	0.0515	0.0366	0.0585	0.0468	0.0503	0.0542	0.0493	0.0572	0.0434	0.0535	–	0.0468	–	0.0645	–	0.0571	0.044	0.0403
MGESLFKGPRDYNPISSSICHLTNESDGHTTSLYGIGFGPFIITNKHLFRRNNGTLVVQSLHGVFKVKDTTTLQQHLVDGCDMIIIRMPKDFPPFPQKLKFREPQREERICLVTTNFQTKSMSSMVSDTSCTFPSGDGIFWKHWIQTKDGQCGSPLVSTRDGFIVGIHSASNFTNTNNYFTSVPKNFMELLTNQEAQQWVSGWRLNADSVLWGGHKVFMVKPEEPFQPVKEATQL [R81C]	0.0894	0.0597	0.073	0.0716	0.0642	0.0934	–	0.0716	0.0606	0.0692	0.0581	0.0737	–	0.0665	0.0628	–	0.039	0.0526
MGESLFKGPRDYNPISSSICHLTNESDGHTTSLYGIGFGPFIITNKHLFRRNNGTLVVQSLHGVFKVKDTTTLQQHLVDGRDMIIIRMPKDFPPFPQKLKFREPQREERICLVTTNFQTKSMSSMVSDTSCTFPSGDGIFWKHWIQTKDGQCGSPLVSTRDGFIVGIHSASNFTNTNNYFTSVPKNFMELLTNQEAQQWVSGWFLNADSVLWGGHKVFMVKPEEPFQPVKEATQL [R204F]	0.0818	0.07	0.0627	0.0984	0.0817	0.151	0.119	0.113	0.0733	0.0746	0.0659	0.0511	0.089	–	0.105	0.134	0.0751	0.0689
